In PubChem BioAssay AID1963576 (National Center for Advancing Translational Sciences (NCATS), 2024):
The whole screen tested about 46,000 compounds, of which about 60 (0.1%) were called active. Roughly 3% stayed inconclusive and do not appear here. Calls come from the whole dose curve; as a rule, active = well fitted inhibition curve with a large enough effect; inconclusive = small, poorly fitted or top-dose-only effect; inactive = no such curve, though single readings can be large or run the other way. The list shows a part of the results.

Assay: Primary qHTS assay for Inhibitors of ovarian cancer metastasis using an organotypic tumor microenvironment (TME) model.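 For activity change, negative = inhibition: plate controls were DMSO wells for no effect and tomatine positive control wells for full effect.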 Note: nearly all actives have a fitted effect of over 65% in size.
Details: SKOV3ip1-GFP adhesion/invasion on 3D omental model, fluorescence; series mostly up to 45.8 µM; activity change, negative = inhibition: at the top concentration
Procedure, shortened: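 Adhesion/invasion was scored as fixed GFP-labeled SKOV3ip1 cell counts (488/509 nm), normalized to DMSO and tomatine controls. Cancer cells in serum-free medium, with four compound doses (0.36-46 umol/L), sat 2 hr at RT then 16 hr at 37 C on a 48 hr fibroblast/mesothelial/ECM culture.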

Activity change, negative = inhibition, inactive:
COc1ccc(OC)c(CC2C(=O)Nc3ccc(Br)cc32)c1 (stereo not given) -5.71%, CCOC(=O)c1c(C)oc2ccc(N(C(C)=O)S(=O)(=O)c3c(C)cc(C)cc3C)cc12 -5.09%, COC(=O)c1cc2sccc2n1Cc1ccc(F)cc1Cl -12.6%, O=C(NC1CCN(Cc2ccccc2)CC1)c1ccc(Cn2c(=O)c3ccccc3n(Cc3cccc(F)c3)c2=O)cc1 -12.9%, COc1ccc(Oc2nc3c(c(=O)n(C)c(=O)n3C)n2Cc2ccc(Cl)cc2Cl)cc1 -6.47%, Cc1cccc(C)c1NC(=O)CCC(=O)N1Cc2ccccc2Oc2ncccc21 0.734%, CCC(=O)N1CCc2cc(Br)cc(S(=O)(=O)CCC(=O)Nc3ccc(Cl)cc3)c21 -2.93%, CCC(=O)N1CCc2cc(Br)cc(S(=O)(=O)N3CCN(c4cc(C)ccc4C)CC3)c21 -0.923%, O=C(Nc1ccccc1C(=O)OCc1cc(=O)n2ccsc2n1)c1ccccc1Cl 13.5%, Cc1ccc(NC(=O)C2CCCN2S(=O)(=O)c2cccc3cccnc23)c(C)c1 (stereo not given) 0.638%, Cc1ccc2c(=O)c(C(=O)c3ccc(Cl)cc3)cn(CC(=O)Nc3ccc4c(c3)OCCO4)c2n1 18.9%, Cc1cccc(C(=O)NCc2nc3ccccc3n2Cc2ccccc2Cl)c1 2.11%, O=C(Cc1ccc(NC(=O)N2CCSc3ncccc32)cc1)NCc1cccc(Cl)c1 -3.52%, CCOc1ccc(CNC(=O)C2=Cc3cccc(OC)c3OC2)cc1 1.11%, COc1ccc(CCNC(=O)C2c3ccccc3C(=O)N2Cc2ccccc2)cc1OC (stereo not given) 1.85%, CCOC(=O)c1c(C)n(-c2ccccc2)c2ccc(OC(=O)c3c(F)cccc3F)cc12 21.6%, CCOc1ccc(Cn2c(CNS(=O)(=O)c3ccc(C(C)(C)C)cc3)nc3cccnc32)cc1 2.22%, COc1ccc(Cl)cc1C(=O)NCCS(=O)(=O)N1CCN(c2ccccc2OC)CC1 19.1%, COc1cccc(NC(=O)Cn2c(=O)n(Cc3ccc(C(=O)NCc4ccc(C)cc4)cc3)c(=O)c3ccccc32)c1 -9.34%, COc1ccc2c(C)c(CCC(=O)NCc3ccccc3Cl)c(=O)oc2c1C -5.23%, COc1c(C)cc(NS(=O)(=O)c2ccc3c(c2)OCCO3)cc1C 3.03%, Cc1ccc(-c2nn(CCC(N)=O)c(=O)c3ccccc23)cc1 5.39%, O=C(CN1C(=O)C2(SCC(=O)N2c2ccc(F)c(F)c2)c2ccccc21)Nc1cccc(Cl)c1 (stereo not given) -2.27%, Cc1ccccc1OCC(=O)Nc1ccc2nc(SCC(=O)N3CCOCC3)sc2c1 17.9%, Cc1cc(Nc2ccccc2O)nc(C)n1 5.84%, COc1ccc(CNC(=O)C2CCN(C(=O)N3CCOc4ccc(Cl)cc43)CC2)cc1 4.39%, CCOC(=O)c1cnc2ccc(OC)cc2c1Nc1cccc(C(C)=O)c1 1.57%, CCOc1ccc(C(=O)NCc2nc(-c3ccc(Cl)cc3)no2)cc1OCC -8.67%, Cc1cccc(C)c1-n1ncc(C(=O)NCCN2CCN(C)CC2)c1C1CCN(C(=O)OC(C)(C)C)CC1 -7.07%, Cc1cccc(NC(=O)C2CCN(S(=O)(=O)c3c(C)noc3/C=C/c3ccco3)CC2)c1 5.82%, COC(=O)c1sc2cccc(F)c2c1S(=O)(=O)N1CCN(c2cccc(C)c2)C(C)C1 (stereo not given) 0.658%, CCc1cccc(NC(=O)CN(C)S(=O)(=O)c2ccc3[nH]c4c(c3c2)CCCC4)c1 2.76%, CCc1ccccc1-n1c(N)c(C(=O)OC)c2nc3ccccc3nc21 -2.15%, CCOC(=O)c1cnc2c(Cl)cc(Cl)cc2c1Nc1ccccc1OC 1.43%, Cc1ccc(-c2nnc3c4ccccc4c(C)nn23)cc1NC(=O)c1ccccc1 1.71%, COC(=O)c1ccc(Cn2nnc3c(=O)[nH]c(C4CCCN(S(=O)(=O)c5ccccc5Cl)C4)nc32)cc1 (stereo not given) -8.58%, CCCOC(=O)c1c(NC(=O)c2cc3ccccc3c(=O)o2)sc2c1CCC(C)C2 (stereo not given) 5.68%, CC(C)(C)OC(=O)N1CCC(c2c(C(=O)N3CCN(C(=O)c4ccco4)CC3)cnn2-c2ccc(F)cc2F)CC1 -5.3%, COc1cc(NC(=O)c2nnn(CC(=O)Nc3cc(C)ccc3C)c2N)cc(OC)c1 -6.74%, COC(=O)c1ccc(NC(=O)CC2C(=O)N(c3cccc(OC)c3)C(=O)N2C(C)C)cc1 (stereo not given) -6.11%, COc1cc(NC(=O)c2cc(-c3cccc(OC)c3)n[nH]2)cc(OC)c1 -9.1%, CCOC(=O)CCc1c(C)nc2cc(-c3cc(OC)cc(OC)c3)[nH]n2c1=O -4.92%, O=C(Nc1ccc(OC(F)(F)F)cc1)c1noc2c1CCCC2 0.927%, CCOc1ccc(-n2c(SCC(=O)Nc3ccc(CC)cc3)nc3c(oc4ccccc43)c2=O)cc1 -0.627%, CCOc1cc(C(=O)Nc2ccc3c(c2)n(C)c(=O)c(=O)n3C)cc(OCC)c1OCC 1.56%, Cc1ccc(N2CC(NC(=O)c3cccc(Cl)c3)CC2=O)cc1C (stereo not given) -2.97%, COc1ccc(CNC(=O)c2cnn3c(C)c(Cc4c(F)cccc4Cl)c(C)nc23)cc1 9.49%

outcome, inactive:
COc1cc(-c2cc3n(C)c(C)c(CCC(=O)NC4CCCCC4)c(=O)n3n2)cc(OC)c1OC, CCOC(=O)c1cc(-c2ccc(C)cc2)n(CCC(=O)NCCc2ccc(C)cc2)c1C, CCN(CC)CCNC(=O)c1cn(CC)c2ccc(S(=O)(=O)N3CCc4ccccc4C3)cc2c1=O, COCCn1c(=N)c(C(=O)NC2CCCC2)cc2c(=O)n3cc(C)ccc3nc21, O=C(Nc1cccc(OCc2cc(=O)n3ccccc3n2)c1)Nc1cccc(C(F)(F)F)c1, CCOc1ccccc1CNC(=O)c1oc2c(c1C)-c1nn(Cc3cccc(Cl)c3)cc1CC2, CCOc1ccc(NC(=O)CCNS(=O)(=O)c2cccs2)cc1, COc1ccc(NC(=O)CCCN2C(=O)CCn3nc(-c4cn(C)c5ccccc45)cc32)cc1, Cc1ccc(C)c(S(=O)(=O)n2nc(C)c(S(=O)(=O)N3CCCCCC3)c2C)c1, CCN(Cc1ccccc1)S(=O)(=O)c1ccc(F)c(C(=O)Nc2cc(C)ccc2OC)c1, Cc1nc2ccc(S(=O)(=O)N(CC(=O)Nc3ccc(F)cc3)Cc3ccccc3)cc2s1, COc1ccc(CCNc2ncnc3c2nnn3C)cc1, COc1ccc(N(C(=O)c2ccc(C(C)(C)C)cc2)S(=O)(=O)c2ccc(Cl)cc2)cc1
